# Source: the supplement of paper PMC4604168 (melanoma cell lines)
# Some of the results follow. Repeats are few or missing, and single values can be far off.
# Columns and labels:
# Test in all cases: cell count relative to DMSO control; melanoma cells; higher = more viable cells
# Conditions in all cases: library dose: low library concentration; 72 h
# MZ2-MEL = tested on: MZ2-MEL
# MeWo = tested on: MeWo
# RPMI7951 = tested on: RPMI7951
# RVH-421 = tested on: RVH-421
# SkMel28 = tested on: SkMel28
# SkMel2 = tested on: SkMel2
# SkMel30 = tested on: SkMel30
# UACC62 = tested on: UACC62
# 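Also: cell number obtained by counting DAPI-stained nuclei in high-throughput microscope images with image analysis software, screen run in 1,536-well plates.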
Structure (SMILES),cell count (MZ2-MEL) [%],cell count (MeWo) [%],cell count (RPMI7951) [%],cell count (RVH-421) [%],cell count (SkMel28) [%],cell count (SkMel2) [%],cell count (SkMel30) [%],cell count (UACC62) [%]
"C[C@]1(O)C[C@@H](c2nc(-c3ccc4ccc(-c5ccccc5)nc4c3)c3c(N)nccn32)C1 + Cc1nc(Nc2ncc(C(=O)Nc3c(C)cccc3Cl)s2)cc(N2CCN(CCO)CC2)n1 [dasatanib] (first compound 0.4 µM, partner dose 0.004 µM)",70.4,84.5,82.7,122,78.8,76.3,72.9,71
"CCN(CC)CCNC(=O)c1c(C)[nH]c(/C=C2\C(=O)Nc3ccc(F)cc32)c1C [sunitinib] + Clc1ccc(Nc2nnc(Cc3ccncc3)c3ccccc23)cc1 [vatalanib] (first compound 0.4 µM, partner dose 2 µM)",97,66.9,106,139,82.4,103,53.3,88.5
"Cn1cnc2c(F)c(Nc3ccc(Br)cc3Cl)c(C(=O)NOCCO)cc21 [selumetinib] + OCc1c[nH]c2ccccc12 [Indole-3-carbinol] (first compound 0.015 µM, partner dose 0.8 µM)",87.2,85.5,98.7,67.5,95.4,72.5,50.3,62.7
"CCN(CC)CCNC(=O)c1c(C)[nH]c(/C=C2\C(=O)Nc3ccc(F)cc32)c1C [sunitinib] + CNC(=O)c1cc(Oc2ccc(NC(=O)Nc3ccc(Cl)c(C(F)(F)F)c3)cc2)ccn1 [sorafenib] (first compound 0.4 µM, partner dose 0.4 µM)",92.7,92.4,115,113,94.1,95.5,79.2,84.2
"Cn1cnc2c(F)c(Nc3ccc(Br)cc3Cl)c(C(=O)NOCCO)cc21 [selumetinib] + CNC(=O)c1cc(Oc2ccc(NC(=O)Nc3ccc(Cl)c(C(F)(F)F)c3)cc2)ccn1 [sorafenib] (first compound 0.015 µM, partner dose 0.4 µM)",125,99.8,112,69.4,76,81.7,93.2,66.1
"Cn1cnc2c(F)c(Nc3ccc(Br)cc3Cl)c(C(=O)NOCCO)cc21 [selumetinib] + Clc1ccc(Nc2nnc(Cc3ccncc3)c3ccccc23)cc1 [vatalanib] (first compound 0.015 µM, partner dose 2 µM)",108,71.5,93.8,85.2,91,78,90.3,68
"Cn1cnc2c(F)c(Nc3ccc(Br)cc3Cl)c(C(=O)NOCCO)cc21 [selumetinib] + Nc1cccc2c1CN(C1CCC(=O)NC1=O)C2=O [lenalidomide] (first compound 0.015 µM, partner dose 1 µM)",97.8,101,105,81.8,96.2,73.9,63.1,81.6
"Cn1cnc2c(F)c(Nc3ccc(Br)cc3Cl)c(C(=O)NOCCO)cc21 [selumetinib] + CC(=O)O[C@@]12CO[C@@H]1C[C@H](O)[C@@]1(C)C(=O)[C@H](O)C3=C(C)[C@@H](OC(=O)[C@H](O)[C@@H](NC(=O)OC(C)(C)C)c4ccccc4)C[C@@](O)([C@@H](OC(=O)c4ccccc4)[C@H]21)C3(C)C [Docetaxel] (first compound 0.015 µM, partner dose 0.0001 µM)",56.7,56.5,52.1,87,37.2,44.9,44.2,39.9
"C[C@]1(O)C[C@@H](c2nc(-c3ccc4ccc(-c5ccccc5)nc4c3)c3c(N)nccn32)C1 + CC(C)C[C@H](NC(=O)[C@H](Cc1ccccc1)NC(=O)c1cnccn1)B(O)O [Bortezomib] (first compound 0.4 µM, partner dose 0.001 µM)",89.2,101,82.9,86.4,89,85.8,96,87.2
"C[C@]1(O)C[C@@H](c2nc(-c3ccc4ccc(-c5ccccc5)nc4c3)c3c(N)nccn32)C1 + CN(c1ncccc1CNc1nc(Nc2ccc3c(c2)CC(=O)N3)ncc1C(F)(F)F)S(C)(=O)=O [PF562271] (first compound 0.4 µM, partner dose 0.08 µM)",71.7,86.4,85.7,95.1,88.3,76,74.1,90.6
"COc1cc([C@@H]2c3cc4c(cc3[C@@H](O[C@@H]3O[C@@H]5CO[C@@H](C)O[C@H]5[C@H](O)[C@H]3O)[C@H]3COC(=O)[C@H]23)OCO4)cc(OC)c1O [etoposide] + OCc1c[nH]c2ccccc12 [Indole-3-carbinol] (first compound 0.02 µM, partner dose 0.8 µM)",90.9,102,108,97.2,111,97.1,109,68.8
